Measured values as given in PMC12136788.
This is one part of the list.

T1: UNK ZnF1-3 (human, UniProt Q9C0B0 31-174)
T1 sequence: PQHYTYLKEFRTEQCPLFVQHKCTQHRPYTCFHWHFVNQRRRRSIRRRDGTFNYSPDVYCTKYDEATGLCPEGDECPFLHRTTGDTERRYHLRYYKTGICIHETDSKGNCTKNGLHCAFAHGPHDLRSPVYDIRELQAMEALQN

B1: chrX:132781199:132781200:+_ENSMUSG00000042712_ENSMUST00000048687|mus_mus|motif|central (ssRNA)
RNA: GGGAGUUCUACAGUCCGACGAUCAUGAAAAGAAAGCUAGAUCGCAAUGGUAACAUCAGAUAAAAGGGAAAGCAAGCCAAGCGGCAUUAAAUAGGGGUAAGGAUGGCUUCGGUUAGCCUUCCAACGCGUCACUAUAAGUUUGUUCAACAGAGGAUUGAGCAUCA
B2: chr7:141438946:141438947:+_ENSG00000106028_ENST00000265304|hu_mus|hu_hu_hu_mus_True|8_28 (ssRNA)
RNA: GGGAGUUCUACAGUCCGACGAUCGACGAAAUACCUGUAACACAGGUCUUCGAAACAUGGCUUCUGUUUUUCUUACAACCUAAUCUUUAGGCUUUUCCUAAAGGAAAAACCCGAGCAAGAAAAAUGAGCAGGGGAUCAACUACACAACAGAGGAUUGAGCAUCA
B3: chr13:36245089:36245090:+_ENSG00000172915_ENST00000537702|perfect_dup|FALSE|FALSE (ssRNA)
RNA: GGGAGUUCUACAGUCCGACGAUCGUUCUUCCUUUAUCUUCAGUAUCUGUUCUGAUGCUCAUAAUGCCACCGAUUAAAAUCUAUAUUAAAAGCUACAAUGCUACCAGAAGCCAUGCCAGUGAUCAGAGUCCUCUGGUCAUGGGACAACAGAGGAUUGAGCAUCA
B4: chr1:45478652:45478653:+_ENSG00000126088_ENST00000246337|hu_hu|motif|central (ssRNA)
RNA: GGGAGUUCUACAGUCCGACGAUCGCAGGCCUCAGGAGAGCGACACGUGCUGAAAAAGUCCUGGGCAGCCCGGGUUUCCCGGAACUCUGGUAAGUAACGGCCUGCCUGGCGCAUGCACCAAACGGGAGUGUAGUCUGUUUCCUCCAACAGAGGAUUGAGCAUCA
B5: chr6:72301320:72301321:+_ENSMUSG00000058706_ENSMUST00000077783|mus_hu|FALSE|FALSE (ssRNA)
RNA: GGGAGUUCUACAGUCCGACGAUCUAGCCAGGACGGUCUGGAUCUCCUGAUUUCAUGAUCCGCCCGCCUCGGCCUCCCUACCUCUUCCUUUACUUAAUAAGAAUGCGGUCUAAAUUUUCAGGUGCCAAGCCCCCAAACUCCUCUCAACAGAGGAUUGAGCAUCA
B6: chr3:108421708:108421709:+_ENSMUSG00000040389_ENSMUST00000051145|mus_hu|FALSE|FALSE (ssRNA)
RNA: GGGAGUUCUACAGUCCGACGAUCGCCAAGAAGCACUUCGCUUUCUGUAAUUUCUUCUCCAGUUGCUUUACUCUGACAAAAUUCUACACAGCAUUCAUAAAGCAGGCCUUUCAUUACAAGCUGAAAUAAACGAUUGUUACUAGCCAACAGAGGAUUGAGCAUCA
B7: chr2:48026839:48026840:+_ENSG00000116062_ENST00000540021|hu_hu|hu_hu_hu_mus_False|78_98 (ssRNA)
RNA: GGGAGUUCUACAGUCCGACGAUCAUAGUGAGCCACUAGAGUCCUAAAUCUGGAACAAUGGCGAUCAUCCGAAAACUGGCCGAUGAAAAACUUGCCCAGUGAAGUGUCCACAAAGCAAACACCAUACACACGAGUGUGACCAGACAACAGAGGAUUGAGCAUCA
B8: chr6:110421769:110421770:-_ENSG00000112290_ENST00000392587|hu_hu|motif|central (ssRNA)
RNA: GGGAGUUCUACAGUCCGACGAUCUUUUUCUUACUCCAACCAAUCUACUUCAUCAAAUUCUGAAUCAUCUUCCGAAUCACGGUAUUCAACAGCAAUACGGCGAGACAGGAUGGUGGCAACAUCGUUUUCAAUGCGUUCAUGCUUCAACAGAGGAUUGAGCAUCA
B9: 27865549_27865761_3985_CDS_ENSMUSG00000026837_ENSMUST00000028280|mouse|control|control (ssRNA)
RNA: GGGAGUUCUACAGUCCGACGAUCUCUUGAACCUUCAUCUCCUUUCUGCCCAAACAGGCCCUGCUGUCCACGAGGGCCAGGUUCACCAUCUGCUCCCGAAGGGCCUGGCUGUCCAAUCGGGCCUUGAGGACCGGUAGGCCCAGGCAACAGAGGAUUGAGCAUCA
B10: chr12:48362563:48362564:+_ENSG00000134291_ENST00000256686|hu_hu|hu_hu_hu_mus_False|58_108 (ssRNA)
RNA: GGGAGUUCUACAGUCCGACGAUCUCCGAAGGGUGAAUCGAUAGACCCUUGCGGGGGAAACUGUAAUCACUUUGUAUUUCUAAAAAAAAGAAACGCCAAAAACUUUCCAAAAAGCGGGGGUGGGGUGAGGCGGGAGGGGGAGGUCAACAGAGGAUUGAGCAUCA
B11: chr3:10015032:10015033:+_ENSMUSG00000027533_ENSMUST00000029046|mus_mus|mus_mus_mus_hu_True|28_88 (ssRNA)
RNA: GGGAGUUCUACAGUCCGACGAUCGUUUUUACCAUCACAAGUGAUGAUACAGUCUGGCUUGGCCAUUGCGCCCAUUUUUCGCAAAGCUAUUCCCACUCCUAGCUCCUUCAUGUACUCAUCAAAGCCUUUGCUGUCCACCAGGCGCAACAGAGGAUUGAGCAUCA
B12: 58499947_58500067_473_3pUTR_ENSMUSG00000038668_ENSMUST00000055018|mouse|control|control (ssRNA)
RNA: GGGAGUUCUACAGUCCGACGAUCAACAUGAUGAACACGCAAACAGUGAUGCCCAGUCCCAUCACCAGCUUGCUCACUGUGUUCCAUUCUGUGGCUAGAUAUUUCCCACUCCGGUUAUAAAAGAAGGCGAUAGACUCAUUGUAGCAACAGAGGAUUGAGCAUCA
B13: chrX:71549400:71549401:+_ENSMUSG00000019087_ENSMUST00000019231|mus_hu|mus_mus_mus_hu_False|48_48 (ssRNA)
RNA: GGGAGUUCUACAGUCCGACGAUCGCAGUAGGAAGAGGGAAGCUCUUCAGUCCAGUGCGCUGCAGGGUGGGAAAGCAACAACACGGAACCAAUACUCCCCUCAACCCCCCCACUGGCACAGGGUCACACAAUCUGGGUCAAAGACAACAGAGGAUUGAGCAUCA
B14: chr9:79603372:79603373:-_ENSMUSG00000032330_ENSMUST00000034881|mus_mus|motif|central (ssRNA)
RNA: GGGAGUUCUACAGUCCGACGAUCCACGUGAAGACUGGGAUGACGACAUUAGUUCUGCUUCUUGGGAAAUGCAGCCAUAGCGGACAGAUAGAUGGCAUAGGCUGUGCCACCAAGCGUCAGAGCCAUUGUGGCUCUGUAGAGGAGCAACAGAGGAUUGAGCAUCA

Target: T1, UNK ZnF1-3
Assay: nsRBNS (natural sequence RNA bind-n-seq); RBNS binding buffer (assumed for nsRBNS): 25 mM Tris pH 7.5, 150 mM KCl, 3 mM MgCl2, 0.01% Triton X-100, 500 ug/ml BSA, 20 U/ml SUPERase-In, 4 C; UNK is unkempt and MSI1 is Musashi-1; names of the RNAs are library labels; protein concentration not given here; high values mean tight binding

Binder	binding signal [enrichment R]
B1	1.28
B2	0.475
B3	1.28
B4	1.21
B5	0.767
B6	1.22
B7	1.34
B8	0.834
B9	0.789
B10	2.08
B11	0.689
B12	1
B13	1.44
B14	1.26
